Paper PMC4751364, “Mitotic Activation of a Novel Histone Deacetylase 3-Linker Histone H1.3 Protein Complex by Protein Kinase CK2*” (The Journal of Biological Chemistry, 2015)
No constants are given. Whether binding was seen depends on the method and setting. Binding seen in cells or lysates may run through a third protein. Some entries that bind do so weakly or less than the wild type.

By UniProt entry, the sequences of proteins in these tests, tags left out.
UniProt O15379: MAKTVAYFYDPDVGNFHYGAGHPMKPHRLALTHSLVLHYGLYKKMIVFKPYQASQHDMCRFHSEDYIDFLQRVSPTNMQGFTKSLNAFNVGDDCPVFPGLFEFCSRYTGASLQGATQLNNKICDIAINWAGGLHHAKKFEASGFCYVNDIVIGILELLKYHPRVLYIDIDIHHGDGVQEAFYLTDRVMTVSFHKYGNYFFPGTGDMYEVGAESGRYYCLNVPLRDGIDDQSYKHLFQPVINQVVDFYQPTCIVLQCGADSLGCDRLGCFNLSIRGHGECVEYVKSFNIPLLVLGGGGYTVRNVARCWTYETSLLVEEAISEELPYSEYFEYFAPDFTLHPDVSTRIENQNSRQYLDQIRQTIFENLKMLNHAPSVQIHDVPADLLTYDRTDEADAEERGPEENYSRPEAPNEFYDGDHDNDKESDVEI
UniProt P16401: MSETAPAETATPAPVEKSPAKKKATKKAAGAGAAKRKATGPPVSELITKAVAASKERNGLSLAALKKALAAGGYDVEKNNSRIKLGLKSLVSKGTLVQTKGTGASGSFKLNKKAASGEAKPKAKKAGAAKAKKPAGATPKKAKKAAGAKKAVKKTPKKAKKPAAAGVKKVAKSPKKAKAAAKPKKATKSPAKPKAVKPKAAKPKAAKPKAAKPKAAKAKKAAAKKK
UniProt Q02539: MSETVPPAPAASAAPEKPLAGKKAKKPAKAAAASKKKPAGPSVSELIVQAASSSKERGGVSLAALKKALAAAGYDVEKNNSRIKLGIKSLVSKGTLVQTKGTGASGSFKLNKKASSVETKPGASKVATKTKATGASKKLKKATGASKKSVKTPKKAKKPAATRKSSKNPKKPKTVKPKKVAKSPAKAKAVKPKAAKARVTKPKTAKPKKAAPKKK
UniProt P16402: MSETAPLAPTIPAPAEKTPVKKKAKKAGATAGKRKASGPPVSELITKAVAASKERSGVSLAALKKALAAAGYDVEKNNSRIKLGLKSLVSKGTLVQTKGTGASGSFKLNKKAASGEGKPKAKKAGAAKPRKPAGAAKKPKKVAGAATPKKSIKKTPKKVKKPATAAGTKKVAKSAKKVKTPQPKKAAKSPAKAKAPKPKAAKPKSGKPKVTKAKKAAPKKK
UniProt P16403: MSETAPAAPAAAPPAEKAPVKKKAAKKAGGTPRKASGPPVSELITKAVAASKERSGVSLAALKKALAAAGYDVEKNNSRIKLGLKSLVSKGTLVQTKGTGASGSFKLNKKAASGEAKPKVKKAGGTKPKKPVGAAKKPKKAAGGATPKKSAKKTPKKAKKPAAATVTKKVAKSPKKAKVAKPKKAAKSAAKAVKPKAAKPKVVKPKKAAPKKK

T1: HDAC8 (human (endogenous in HeLa S3)) (UniProt Q9BY41)
T1 sequence: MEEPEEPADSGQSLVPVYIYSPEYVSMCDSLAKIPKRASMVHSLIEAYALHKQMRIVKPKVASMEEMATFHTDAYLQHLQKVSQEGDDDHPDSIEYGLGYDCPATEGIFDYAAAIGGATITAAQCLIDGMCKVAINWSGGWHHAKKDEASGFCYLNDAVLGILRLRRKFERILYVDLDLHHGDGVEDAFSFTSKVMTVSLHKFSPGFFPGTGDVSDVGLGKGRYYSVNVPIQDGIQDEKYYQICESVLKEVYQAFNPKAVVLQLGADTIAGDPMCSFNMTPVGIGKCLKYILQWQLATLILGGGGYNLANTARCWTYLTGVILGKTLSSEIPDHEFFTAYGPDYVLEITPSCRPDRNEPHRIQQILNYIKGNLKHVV

B1: HDAC8 (enzyme, UniProt Q9BY41 1-377)
chain: T1 sequence

How the values were obtained:
[1] = molecular target: Histone deacetylase 3 (human (endogenous in HeLa S3 and MCF-7)) (UniProt O15379); assay: co-IP; endogenous proteins of HeLa S3 whole cell extracts (0.5% Nonidet P-40 in PBS), unsynchronised or synchronised to S, early G2, late G2 phase or mitosis (double thymidine block, nocodazole); antibody 1-2 ug/ml overnight at 4 C, protein A/G- or L-agarose, washed three times with radioimmune precipitation assay buffer; Western blot; non-immune IgG/IgM as control
[2] = molecular target: T1, HDAC8 (human (endogenous in HeLa S3)); assay: as above

Row | Molecule | binding [1] | binding [2]
1 | linker histone subtype H1.5 (from UniProt P16401 1-226) | no binding | 
2 | linker histone subtype H1.1 (from UniProt Q02539 1-215) | no binding | 
3 | linker histone subtype H1.3 (from UniProt P16402 1-221) | binds | 
4 | linker histone subtype H1.2 (from UniProt P16403 1-213) | no binding | 
5 | Histone deacetylase 3 (from UniProt O15379 1-428) (enzyme) |  | no binding
6 | B1 | no binding | 
